Test results from article PMC4336329 (PLoS ONE, 2015).
Out of some 310,000 compounds screened, about 14,000 (4.5%) showed an effect of 50% or more. The effect is printed as a negative number. This is one part of the list.

Each compound was assayed against human ether-à-go-go-related gene (hERG) potassium channel (human, UniProt Q12809) (assay: primary screen, population patch clamp on CHO cells stably expressing hERG).
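Further: peak tail current of the secondary pulse compared with the same well before compound.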

Sequence of human ether-à-go-go-related gene (hERG) potassium channel (Q12809 whole entry, looked up): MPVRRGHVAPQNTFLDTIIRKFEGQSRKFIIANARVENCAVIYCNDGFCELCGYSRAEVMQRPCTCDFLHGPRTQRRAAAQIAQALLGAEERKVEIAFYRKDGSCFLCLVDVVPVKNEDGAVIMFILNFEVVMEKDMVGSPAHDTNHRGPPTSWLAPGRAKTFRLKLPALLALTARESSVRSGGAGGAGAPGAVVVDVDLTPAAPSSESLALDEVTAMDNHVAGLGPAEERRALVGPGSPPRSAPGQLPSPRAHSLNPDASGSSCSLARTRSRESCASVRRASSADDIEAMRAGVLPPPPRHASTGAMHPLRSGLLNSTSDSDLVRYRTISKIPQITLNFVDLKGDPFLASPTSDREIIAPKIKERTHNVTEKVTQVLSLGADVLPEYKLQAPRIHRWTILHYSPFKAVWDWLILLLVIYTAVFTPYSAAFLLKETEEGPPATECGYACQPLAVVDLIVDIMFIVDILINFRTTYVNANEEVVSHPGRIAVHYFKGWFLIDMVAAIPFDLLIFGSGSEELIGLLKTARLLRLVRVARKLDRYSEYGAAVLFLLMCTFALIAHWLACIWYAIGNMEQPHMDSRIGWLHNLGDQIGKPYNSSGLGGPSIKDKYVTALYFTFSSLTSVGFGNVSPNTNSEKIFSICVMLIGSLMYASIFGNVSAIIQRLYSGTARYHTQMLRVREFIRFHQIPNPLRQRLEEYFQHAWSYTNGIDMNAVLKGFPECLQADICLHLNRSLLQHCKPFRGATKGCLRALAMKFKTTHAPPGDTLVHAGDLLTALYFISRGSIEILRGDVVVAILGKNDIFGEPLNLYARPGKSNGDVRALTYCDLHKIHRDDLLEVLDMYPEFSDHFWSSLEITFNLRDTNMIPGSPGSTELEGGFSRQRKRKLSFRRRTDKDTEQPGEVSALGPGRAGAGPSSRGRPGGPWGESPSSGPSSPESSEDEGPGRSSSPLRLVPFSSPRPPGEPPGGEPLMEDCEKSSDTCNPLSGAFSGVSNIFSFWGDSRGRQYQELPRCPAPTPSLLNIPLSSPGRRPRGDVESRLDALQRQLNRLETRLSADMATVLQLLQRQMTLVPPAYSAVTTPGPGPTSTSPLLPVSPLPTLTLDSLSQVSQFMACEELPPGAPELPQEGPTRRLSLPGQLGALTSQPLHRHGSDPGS

Row | Compound | hERG current change (%, negative = inhibition) at 10uM
1 | O=C(O)C[C@H]1c2ccccc2S(=O)(=O)N1C1CCCC1 | 18.4%
2 | CC(C)N(Cc1ccccc1)C(=O)COC(=O)C1CCN(S(=O)(=O)c2ccc3c(c2)OCCO3)CC1 | -9.7%
3 | CC(C)CCNC(=O)C(C)N(Cc1ccc(F)cc1)C(=O)c1ccc(CN2CCCCC2)o1 (centres unmarked) | -30.1%
4 | CCn1c(=O)c2cc(C(=O)NCCCOC)sc2c2ccccc21 | 7.3%
5 | CCOC(=O)c1c(N)c(C#N)c2n1CCCCC2 | 8.65%
6 | CC(C(=O)N1CCOCC1)c1ccc([N+](=O)[O-])cc1 (centres unmarked) | 9.94%
7 | CC(Sc1nc(-c2ccccc2)cc(C(F)(F)F)n1)C(=O)N1CCCCC1 (centres unmarked) | -17.9%
8 | COc1cccc(-c2csc(N3CCN(CC(=O)NNC(=O)c4ccc(Cl)cc4)CC3)n2)c1 | 7.95%
9 | COC(=O)c1c(C)nc(C)c(C(=O)OC)c1-c1ccc(OC)c(OC)c1 | 16.8%
10 | CC(C)[C@H](NC(=O)N1c2ccccc2NC(=O)[C@@H]1C(C)C)C(=O)N[C@H](Cc1ccccc1)C(=O)O | -1.33%
11 | Cc1ccc(OCC(=O)N2CCN(C3=NS(=O)(=O)c4ccccc43)CC2)cc1 | -60.8%
12 | NC(=O)C[N+]1(CC#CC(O)(c2ccccc2)c2ccccc2)CCCC1.[I-] | 9.8%
13 | CCCNC(=O)CS(=O)(=O)Cc1nc(-c2cccc(OC)c2)oc1C | -70%
14 | CCOc1ccccc1CNC(=O)c1ccc2c(c1)N(CC)CCS2 | -13.8%
15 | CC(=O)N(CC(C)C(=O)O)c1c(I)cc(I)c(N)c1I (centres unmarked) | 18.5%
16 | Cc1cc(C(=O)NCc2ccccc2Cl)c2ccccc2n1 | 9.49%
17 | CCC(C)NC(=O)N[C@@H](CCSC)C(=O)O (some centres unmarked) | 5.84%
18 | CC(=O)C1=C(C)OC(N)=C(C#N)C1c1cccc2ccccc12 (centres unmarked) | 4.77%
19 | COC(=O)C1=C(C(=O)OC)[C@@H]2Nc3ccccc3[C@@]23C[C@@H](C(=O)OC)N(C(=O)c2ccco2)C3=N1 | -16.2%
20 | O=C1c2cccnc2C(=O)N1Cc1ccc(S(=O)(=O)N2CCN(c3ccc(Cl)cc3)CC2)cc1 | -5.53%
21 | COC(=O)C1=C(c2ccc(OC)c(OC)c2)C[C@@H]2CC[C@H]1N2C(=O)NC1CCCCC1 | -0.475%
22 | O=C(O)c1ccccc1CSc1ccccn1 | 10.4%

Row | Compound | hERG current change (%, negative = inhibition) at 10uM
23 | Cc1c(NCc2ccncc2)cccc1C(=O)O | 14.1%
24 | Cn1c(O)c(N=NC(=N)N)c2ccccc21 | 19.3%
25 | NS(=O)(=O)CCCc1ccccc1 | 13.6%
26 | CCn1c(CCNS(=O)(=O)c2ccccc2Br)nnc1SC | 0.136%
27 | O=C(Nc1ccc(OC(F)F)c(Cl)c1)[C@@H]1CCCN1C(=O)c1cccs1 | -74.3%
28 | CN1CCc2c(sc(N)c2C(=O)c2ccc(Cl)cc2)C1 | 4.48%
29 | Cc1cc(C)c(S(=O)(=O)N2CCCOC2CNC(=O)C(=O)NCCc2c[nH]c3ccccc23)c(C)c1 (centres unmarked) | 1.55%
30 | COc1ccc(N/C=C/C(=O)c2cc(OC)c(OC)c(OC)c2)cc1 | -8.76%
31 | CSc1ccccc1OCc1cc(C(=O)N(C)Cc2c(C)n[nH]c2C)no1 | -11.7%
32 | Cc1ccc(N2CC(C(=O)Nc3ncc([N+](=O)[O-])s3)CC2=O)cc1 (centres unmarked) | 6.15%
33 | COc1ccc(Cn2c(CCC(=O)Nc3ccccc3)nc3cccnc32)cc1 | -9.7%
34 | COc1ccccc1NC(CC(=O)c1ccccc1)C(=O)OCC(=O)c1ccc(Br)cc1 (centres unmarked) | -3.81%
35 | COc1ccc(C2N(c3ccccn3)C(=O)C3CCCN32)c(OC)c1 (centres unmarked) | 8.94%
36 | O=C(CSc1ccccc1F)NNC(=O)c1ccncc1 | 4.8%
37 | O=S(=O)(Cc1ccccc1)N1CCN(Cc2ccc(Br)cc2)CC1 | 14.5%
38 | Cc1noc(C)c1CCC(=O)NC1CCCN(Cc2ccc(Cl)cc2)C1 (centres unmarked) | -24%
39 | COc1cc(CNCCSc2nnnn2C)cc(Br)c1OCc1ccc(F)cc1.Cl | -43.9%
40 | COc1ccc(CN2CCNC(=O)C2CC(=O)NCCCn2nnc3ccccc32)cc1C (centres unmarked) | -2.87%
41 | CC(=O)c1cccc(NC(=O)CCNS(=O)(=O)c2cccc3nonc23)c1 | 12.8%
42 | Cc1c(Cl)cccc1NC(=O)c1ccc(-n2ccnc2)nc1 | -3.33%
43 | CCn1c(SCC(=O)c2cccs2)nnc1-c1cccs1 | -33.2%
44 | CC(=O)Nc1cccc(C(=O)OC(C)C(=O)N2CCc3ccccc32)c1 (centres unmarked) | -33.2%

Row | Compound | hERG current change (%, negative = inhibition) at 10uM
45 | COc1ccc(C(=O)NC2CCCCCC2)cc1S(=O)(=O)N1CCCc2ccccc21 | 11.3%
46 | Cc1ccsc1-c1nc(CN2C[C@@H](C)O[C@@H](C)C2)c(C)o1 | 17.5%
47 | COc1cc(C2CC(=O)Oc3c(C(CCN4CCN(c5ccccc5)CC4)c4ccc(N(C)C)cc4)c(OC)cc(OC)c32)cc(OC)c1OC (centres unmarked) | 4.8%
48 | COc1cc(C(=O)Nc2ccc(S(=O)(=O)Nc3nccc(C)n3)cc2)cc(OC)c1OC | 12.9%
49 | CC(=O)c1cc(NC(=O)c2cccc(C(F)(F)F)c2)c(=O)oc1/C=C/N(C)C | -6.48%
50 | Cc1c(C)n(CCc2ccccc2)c2ncnc(NN)c12 | -29.6%
51 | CN(Cc1c(O)ccc2c1oc(=O)c1ccccc12)C1CCCCC1 | -42.8%
52 | CCOC(=O)C1C(=O)C=C(c2ccc(C)cc2)CC1c1ccco1 (centres unmarked) | 5.34%
53 | Cc1cc(NS(=O)(=O)c2ccc(NC(=O)CCCOc3ccccc3)cc2)no1 | 14.5%
54 | COc1cc(CN2CC(=O)N(c3ccc(C)c(Cl)c3)C2=S)cc(OC)c1OC | 14.3%
55 | COc1ccc(C(=O)Nc2ccc(NC(=O)c3cccc(OC)c3)cn2)cc1 | 16.8%
56 | CN(C)C(Cc1ccccc1)C(=O)c1ccc(-c2ccccc2)cc1.Cl (centres unmarked) | 13.2%
57 | Cc1cc(Cl)c2oc(C(=O)N(CCO)Cc3ccccc3)c(C)c2c1 | 9.92%
58 | Nc1ncnc(Nc2ccccc2C(F)(F)F)n1 | 8.45%
59 | CC1=NN(C(=O)c2ccc(Cl)cc2)C(O)(c2ccccc2)C1 (centres unmarked) | 22%
60 | NS(=O)(=O)c1ccc(CCNC(=O)c2nc(CS(=O)(=O)c3ccc(Cl)cc3)no2)cc1 | -7.88%
61 | CC(OC(=O)c1cccc([N+](=O)[O-])c1)C(=O)NCc1ccc2c(c1)OCO2 (centres unmarked) | -11.4%
62 | O=C(NCCN1CCN(c2ccccc2)CC1)C1CCN(S(=O)(=O)c2cccc3nsnc23)CC1 | 12.8%
63 | Cc1c(C(C)(C)C)c(C=S)n2ccccc12 | -12%
64 | CC(C)(C)OC(=O)N[C@@H](COCc1ccccc1)C(=O)N[C@@H](CO)[C@H](O)[C@@H]1C[C@@H]1C(=O)N1CCCC1 | 8.14%
65 | Cc1cc(NC(=O)CN(C)S(=O)(=O)c2cnc[nH]2)ccc1Br | 11.3%
66 | COC(=O)c1ccccc1NS(=O)(=O)c1c(C)noc1C | -0.0399%

Row | Compound | hERG current change (%, negative = inhibition) at 10uM
67 | CCC1CCCCN1C(=O)c1ccc2c(c1)C(=O)N(c1ccc(C)cc1)C2=O (centres unmarked) | -8.83%
68 | COc1ccc([N+](=O)[O-])cc1NC(=O)N(C)Cc1ccco1 | 3.39%
69 | CC(C)c1cccc(C(C)C)c1NC(=O)COC(=O)[C@H](C)NC(N)=O | 16.8%
70 | COc1cc(CNCCc2ccc3c(c2)OCO3)ccc1O.Cl | -6.17%
71 | COCCN(CC(=O)Nc1ccccc1C)S(=O)(=O)c1ccc(S(=O)(=O)N2CCCC2)cc1 | 4.32%
72 | Cn1c(=O)oc2cc(S(=O)(=O)NC3CCCCC3)ccc21 | 0.154%
73 | Cc1nc(-c2ccc(F)cc2)c(CC(=O)N(C)CC(=O)Nc2ccc(F)cc2)s1 | 31.7%
74 | COC(=O)c1c(C)[nH]c(C(=O)C(C)OC(=O)C2CC2C)c1C (centres unmarked) | 5.04%
75 | CS(=O)(=O)Nc1nc2ccccc2[nH]1 | 1.9%
76 | CN1CCN(c2nc(-c3ccc(Cl)c(Cl)c3)nc3ccccc23)CC1 | 6.63%
77 | CCOCC(=O)N1CCN(c2cccc(Cl)c2)CC1 | 8.4%
78 | CCN(Cc1ccccc1)C(=O)COC(=O)c1c(C)nsc1NC | -6.97%
79 | O=C(NCCOC(=O)c1ccccc1)c1ccc([N+](=O)[O-])cc1 | -25.3%
80 | CCCNS(=O)(=O)c1cc2c3c(c1)CCN3C(=O)CC2 | 4.73%
81 | Cn1c(=O)n(CCC(=O)O)c2ccccc21 | 5.85%
82 | O=S(=O)(NCC1CCCO1)c1ccc(S(=O)(=O)N2CCCC2)cc1 (centres unmarked) | 9.47%
83 | O=C(N/N=C/c1ccccc1)C1CCCN1C(=O)c1cc([N+](=O)[O-])cc([N+](=O)[O-])c1 (centres unmarked) | -10.4%
84 | OC(CNCCc1c[nH]c2ccccc12)C(F)(F)F (centres unmarked) | 0.45%
85 | Cn1c(=O)[nH]c(=O)c2c1nc1n2CC(COc2ccc3ccccc3c2)O1 (centres unmarked) | -16.5%
86 | C=C(C)C1CC=C(C)/C(=N/NC(=O)c2ccc(NC(=O)c3cccc(C)c3)cc2)C1 (centres unmarked) | 13.8%
